Measurements taken from PubChem BioAssay AID1963576 (National Center for Advancing Translational Sciences (NCATS), 2024).
Hit rate of the full screen: of about 46,000 compounds, about 60 (0.1%) were called active. Another 3% or so got no clear call; they are omitted. Calls follow the shape of the dose curve; as a rule, active = well fitted inhibition curve with a large enough effect; inconclusive = small, poorly fitted or top-dose-only effect; inactive = no such curve, though single readings can be large or run the other way. The list shows a part of the results.

Experiment: Primary qHTS assay for Inhibitors of ovarian cancer metastasis using an organotypic tumor microenvironment (TME) model. Also: nearly all actives have a fitted effect of over 65% in size.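 As to activity change, negative = inhibition: plate controls were DMSO wells for no effect and tomatine positive control wells for full effect.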
Conditions: SKOV3ip1-GFP adhesion/invasion on 3D omental model, fluorescence; series mostly up to 45.8 µM; activity change, negative = inhibition: at the top concentration
Procedure, shortened: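 qHTS, 4-pt dose (0.36-46 umol/L); SKOV3ip1-GFP, 1,200 cells/well, no FBS; primary omental fibroblast/mesothelial co-culture 48 h pre-grown; 2 h RT + 16 h 37 C; PBS wash, 4% PFA; GFP count 488/509 nm.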

Compound | activity change, negative = inhibition | outcome
CCOc1ccc2nc(NC(=O)CS(=O)(=O)c3ccc(Cl)cc3)sc2c1 | inactive: 1.69% | 
CCCS(=O)(=O)Nc1ccc(F)c(C(=O)c2c[nH]c3ncc(-c4ccc(Cl)cc4)cc23)c1F | inactive: -9.38% | 
Cc1ccc(C(C)C)c(OCC(=O)Nc2ccc(S(=O)(=O)Nc3onc(C)c3C)cc2)c1 | inactive: -5.41% | 
CCCCOC(=O)c1ccc(NC(=O)CSc2nc3c(c(=O)[nH]2)CCCC3)cc1 | inactive: 1.21% | 
Cn1c(-n2cccc2)c(-c2c(-c3ccccc3)[nH]c3c2c(=O)n(C)c(=O)n3C)c(=O)n(C)c1=O | inactive: 5.24% | 
Cc1ccc(-c2nnc(C3CCN(S(=O)(=O)c4ccc(C)c(C)c4)CC3)o2)cc1 | inactive: -5.95% | 
CCOc1ccccc1NC(=O)CN1C(=O)CC(c2ccc(OC)c(OC)c2)Sc2ccccc21 (stereo unspecified) | inactive: 16.2% | 
O=C(NCc1ccccc1)c1nn(-c2ccccc2)nc1CO | inactive: -9.49% | 
COc1ccc(OC)c(/C=C(/C#N)c2nc(-c3ccc(-c4ccccc4)cc3)cs2)c1 | inactive: 3.85% | 
Cc1ccc(CNC(=O)Cn2c(=O)n(-c3ccc(Cl)cc3)c(=O)c3c(C)c(C)sc32)cc1 | inactive: -8.99% | 
O=C(NCc1ccc(F)cc1)c1cc2c(=O)n3ccccc3nc2s1 | inactive: -1.59% | 
Cc1cc(C)cc(NS(=O)(=O)c2ccc3[nH]cc(C(=O)N(C)Cc4ccccc4)c(=O)c3c2)c1 | inactive: -28.3% | 
Cc1ccc(N2C(=O)CCSC23C(=O)N(Cc2ccccc2)c2ccccc23)cc1F (stereo unspecified) |  | inactive
CCN1CCOC(=O)C1CC(=O)Nc1cc(C)cc(C)c1 (stereo unspecified) | inactive: -0.329% | 
COc1ccc(NC(=O)CC2C(=O)N(c3ccc(F)cc3)C(=O)N2Cc2ccco2)cc1 (stereo unspecified) |  | inactive
Cc1ccccc1CN1C(=O)c2ccccc2Sc2ccc(C(=O)NC(C)c3ccccc3)cc21 (stereo unspecified) | inactive: -12.4% | 
Cc1nn2c(-c3ccco3)ccnc2c1-c1ccc(F)cc1 |  | inactive
COc1ccccc1CNC(=O)c1ccc2c(c1)nc(C)n2-c1ccccc1OC | inactive: -12.9% | 
Cc1cc(Nc2ccc(F)cc2)n2c(nc3ccccc32)c1C#N | inactive: -16.8% | 
COC(=O)c1ccccc1NC(=O)c1ccc2c(c1)CCN2S(C)(=O)=O | inactive: 1.88% | 
COc1cc(Nc2ncc3c(n2)CCN(Cc2cc(Br)cs2)C3)cc(OC)c1 |  | inactive

Compound | activity change, negative = inhibition | outcome
Cc1c(-c2nc(-c3ccccc3)no2)nnn1-c1cccc(C(F)(F)F)c1 |  | inactive
Cc1ccc(CSc2nc3c([nH]c4ccccc43)c(=O)n2C)cc1 |  | inactive
CCCCNc1nc2c(S(=O)(=O)c3ccc(C)c(C)c3)nnn2c2ccsc12 | inactive: 3.52% | 
Cc1ccc(NC(=O)Cn2c(=O)n(CCCCC(=O)NCc3ccccc3Cl)c(=O)c3ccccc32)cc1C | inactive: -0.308% | 
CCOc1ccc(NC(=O)Cn2c(C)cc3ccccc3c2=O)cc1 | inactive: 7.15% | 
COc1ccc(NC(=O)c2cccn2-c2nnc(N3CCCCC3)s2)cc1Cl |  | inactive
Cc1nc2ccccn2c(=O)c1NC(=O)c1ccc(C(F)(F)F)cc1 | inactive: -5.94% | 
COc1ccccc1NC(=O)CN1CCCN(S(=O)(=O)c2ccc(Br)cc2)CC1 | inactive: -3.8% | 
Cn1c(=O)c2c(nc3n(-c4ccc(O)cc4)c(-c4ccc(Br)cc4)cn23)n(C)c1=O |  | inactive
COc1ccc(C(=O)Nc2cccc(OCc3cc(=O)n4c5c(sc4n3)CCCC5)c2)cc1 | inactive: -20.4% | 
COc1ccc(OC)c(S(=O)(=O)NCc2cccn2Cc2cccc(C)c2)c1 | inactive: 5.43% | 
CC1=C(C(=O)Nc2cccnc2)C(c2ccc(Cl)cc2)n2nc(-c3ccccc3)nc2N1 (stereo unspecified) |  | inactive
COc1cn(CC(=O)Nc2cccc(C)c2C)c(CN2CCCCC2)cc1=O |  | inactive
Cc1ccc(C)c(NC(=O)CSc2c3c(nc4ccc(Cl)cc24)CCCC3)c1 | inactive: 3.01% | 
CCOC(=O)c1ccccc1NC(=O)c1sc2ncn(Cc3cccc(F)c3)c(=O)c2c1C | inactive: 13.7% | 
COc1ccc(/C=C(\C#N)c2nc(-c3cc4c(ccc5ccccc54)oc3=O)cs2)cc1O | inactive: -2.64% | 
Cc1ccc(C2=Nc3ccccc3N(CC(=O)NCc3ccc(F)cc3)C(=O)C2)cc1C | inactive: -7.55% | 
O=C(O)c1ccc(-n2c(/C=C\c3ccc(O)cc3)nc3ccccc3c2=O)cc1 | inactive: 6.94% | 
COc1ccccc1NC(=O)CSc1nc2ccccc2c2nc(-c3ccccc3)nn12 | inactive: 5.73% | 
COc1ccccc1-c1cc(C(=O)Nc2ccccc2C(F)(F)F)no1 | inactive: 3.67% | 
CCN1CCN(c2cc3c(cc2F)c(=O)c(S(=O)(=O)c2ccccc2)cn3C)CC1 | inactive: 8.89% | 

Compound | activity change, negative = inhibition | outcome
CC(C)NC(=O)CCCN1C(=O)CCn2nc(-c3cccn3C)cc21 | inactive: -2.63% | 
COC(=O)c1cc2c(cc1NC(=O)c1cnn(-c3ccc(C)cc3)c1-n1cccc1)OCO2 | inactive: 11% | 
COC(=O)c1sc(NC(=O)/C=C/c2ccc(OC)c(OC)c2)c(C(=O)OC)c1C | inactive: 0.264% | 
COc1ccc(CNC(=O)CSc2nc3ccccc3nc2Cc2ccccc2OC)cc1 | inactive: -6.18% | 
COc1ccc(OCc2nc3c4c(-c5ccccc5)c(-c5ccccc5)oc4ncn3n2)cc1 | inactive: -7.1% | 
COc1cccc(C(=O)c2cn(CC(=O)NCc3ccccc3)c3nc(C)ccc3c2=O)c1 | inactive: -3.39% | 
CCOC(=O)c1ccc(NS(=O)(=O)c2cc(-c3onc(C)c3C)ccc2C)cc1 | inactive: -3.09% | 
Cc1cccc(CNC(=O)CSCc2cnn(-c3ccccc3)c2-n2cccc2)c1 | inactive: -5.4% | 
CC1=C(C(=O)OCc2ccccc2)C(c2cccc(Cl)c2Cl)CC(=O)N1 (stereo unspecified) | inactive: -12.1% | 
O=S(=O)(O)CCS | inactive: 15.7% | 
O=C(Nc1ccc(Br)cc1F)N1CCC(CN2CCCC2)CC1 |  | inactive
Cc1nn(C)c2c1c(C(F)(F)F)cc(=O)n2C(C)C(=O)NCc1ccc(Cl)cc1 (stereo unspecified) | inactive: 10.7% | 
Cc1[nH]c2ccccc2c1C1N2CC3(C)CN1CC(C)(C2)C3=O (stereo unspecified) | inactive: -1.98% | 
COC(=O)c1ccc(NC(=O)CC2C(=O)N(c3ccc(Cl)cc3)C(=O)N2Cc2ccco2)cc1 (stereo unspecified) | inactive: -12.3% | 
CC1=C(c2ccc(C)cc2)S(=O)(=O)NC1=NCc1cccc(F)c1 | inactive: -7.22% | 
CCN1C(=O)c2ccccc2S(=O)c2ccc(C(=O)N3CCN(c4cccc(C)c4)C(C)C3)cc21 (stereo unspecified) |  | inactive
CC1(C)SCCN(S(=O)(=O)c2ccc(OCC#CCO)cc2)[C@@H]1C(=O)NO | inactive: -5.91% | 
COc1cc(OC)c(C2Nc3c(C)cccc3-c3cc(C)nn32)cc1OC (stereo unspecified) |  | inactive
COc1ccc(NC(=O)CN2CCCN(Cc3ccc(Cl)cc3)S2(=O)=O)cc1Cl | inactive: -8.99% | 
